Tests used:
Assay in all cases: cell-based or functional assay
[1] = biological target: T1, Recombinant human BAFF trimer (Boehringer Ingelheim Pharmaceuticals, Inc.) (human, UniProt Q9Y275 fragment, limits assumed)
[2] = biological target: Recombinant cynomolgus BAFF trimer (Boehringer Ingelheim Pharmaceuticals, Inc.) (cynomolgus, UniProt A0A2K5V2X4 134-285)
[3] = biological target: T1, Recombinant human BAFF trimer …; remark: listed apart in the source
[4] = biological target: Recombinant human BAFF 60mer (Boehringer Ingelheim Pharmaceuticals, Inc.) (human, UniProt Q9Y275 fragment, limits assumed)
[5] = biological target: membrane-bound human BAFF on fixed CHO-K1 cells (human, UniProt Q9Y275 1-285)

IC50, NFkB luciferase reporter, human BAFFR-CHO cells [1]: 0.173 nM | IC90, NFkB luciferase reporter, human BAFFR-CHO cells [1]: 0.914 nM | IC50 Geomean, NFkB luciferase reporter, human BAFFR-CHO cells [2]: 0.602 nM | IC90 Geomean, NFkB luciferase reporter, human BAFFR-CHO cells [2]: 1.09 nM | IC50 Geomean, NFkB luciferase reporter, human TACI-CHO cells [3]: 0.829 nM | IC90 Geomean, NFkB luciferase reporter, human TACI-CHO cells [3]: 1.95 nM | IC50, NFkB luciferase reporter, human BAFFR-CHO cells [4]: 0.043 nM | IC90, NFkB luciferase reporter, human BAFFR-CHO cells [4]: 0.107 nM | IC50, NFkB luciferase reporter, human BAFFR-CHO cells stimulated with fixed human BAFF CHO-K1 cells [5]: 0.581 nM | IC90, NFkB luciferase reporter, human BAFFR-CHO cells stimulated with fixed human BAFF CHO-K1 cells [5]: 3.68 nM
B1: Control Fusion Protein Antagonist 2 (non-antibody BAFF selective antagonist) (BAFF (2)) (Fc fusion)
chain: GCKWDLLIKQWVCDPLGSGSATGGSGSTASSGSGSATHMLPGCKWDLLIKQWVCDPLGGGGGV[letters of human IgG1 Fc not shown]

From patent publication US20210107998A1 (Boehringer Ingelheim, published 2021)
